The target of test [1] is T1, recombinant human IL-18 (rhIL-18) (human, UniProt Q14116 37-193, biotinylated (D-biotinyl-epsilon-aminocaproic acid NHS ester, 2:1 molar ratio of biotin to rhIL-18) in the BIAcore assay; not said to be biotinylated in the KG-1 assay).
T1 construct: also called full length human IL-18; biotinylated rhIL-18
Kind of test: SPR (BIAcore), biotinylated rhIL-18 on streptavidin chip, antibody in solution. The method, then:
Real-time binding interactions between ligand (biotinylated recombinant human IL-18 (rhIL-18) immobilized on a biosensor matrix) and analyte (antibodies in solution) were measured by surface plasmon resonance (SPR) using the BIAcore system (Pharmacia Biosensor, Piscataway, N.J.). The system utilizes the optical properties of SPR to detect alterations in protein concentrations within a dextran biosensor matrix. Proteins are covalently bound to the dextran matrix at known concentrations. Antibodies are injected through the dextran matrix and specific binding between injected antibodies and immobilized ligand results in an increased matrix protein concentration and resultant change in the SPR signal.
Biotinylated rhIL-18 to be immobilized on the matrix via streptavidin was diluted in PBS running buffer (Gibco Cat. No. 14190-144, Gibco BRL, Grand Island, N.Y.) supplemented with 0.05% (BIAcore) surfactant P20 (Pharmacia BR-1000-54, Pharmacia Biosensor, Piscataway, N.J.). To determine the capacity of rhIL-18-specific antibodies to bind immobilized rhIL-18, a binding assay was conducted as follows. Aliquots of biotinylated rhIL-18 (25 nM; 10 μl aliquots) were injected through the streptavidin-coupled dextran matrix at a flow rate of 5 μl/min. Before injection of the protein and immediately afterward, PBS buffer alone flowed through each flow cell. The net difference in signal between baseline and approximately 30 sec. after completion of biotinylated rhIL-18 injection was taken to represent the binding value. Direct rhIL-18-specific antibody binding to immobilized biotinylated rhIL-18 was measured. Antibodies (20 μg/ml) were diluted in PBS running buffer and 25 μl aliquots were injected through the immobilized protein matrices at a flow rate of 5 μl/min. Prior to injection of antibody, and immediately afterwards, PBS buffer alone flowed through each flow cell. The net difference in baseline signal and signal after completion of antibody injection was taken to represent the binding value of the particular sample. […]

The target of test [2] is T1, recombinant human IL-18 (rhIL-18). Put plainly: cell-based or functional assay.

B1: LT28 (parent) (scFv, V domains shown)
VH: [about 100 residues not printed]DDDDYDFDYWGRGTMVTVSS
VL: QSVLTQPPSASGTPGQRVTISCSGSSSNIGINAVNWYQQLPGTAPKLLIYGNDQRPSGVPDRFSGSKSGTSASLAISGLQSEDEADYYCAAWDDSLSGPVFGGGTKLTVLG
notes: Tested as single-chain Fv; also called single-chain anti-IL-18 antibody LT28
On to B1, for which, in test [1], the Kd worked out at 39 nM, the koff was determined as 0.00048 s⁻¹ and the kon is 13000 M⁻¹ s⁻¹. The “IC50 Value, KG-1 cell-based IL-18 neutralization assay (hIFN-gamma)” value in test [2] was 90 nM.

Source of the values: patent publication US20130101595A1 (AbbVie / Abbott, published 2013).
